Data: patent EP0335662B1, “Peptides” (BRITISH TECHNOLOGY GROUP LIMITED, priority 1988, dated 1989)
Not every detail of the peptide structures is certain; ends, links or a residue may be inferred. Some entries repeat one wording, which the source may state once for all of them. Non-standard residues stand in square brackets, D forms with d. Residues, ends and D or L forms follow the SMILES beside them.

Columns and labels:
[1] = system: hyperalgesia evoked by acetic acid; assay: Contortions (writhing) evoked by ip acetic acid; format: in vivo, mice; conditions: for analgesic activity against hyperalgesia evoked by acetic acid, given ip: ip (tripeptides 2-100 mg/kg)
[2] = system: human blood mononuclear cells (MNC); assay: PGE₂ release by blood mononuclear cells, radioimmunoassay; format: cell-based
[3] = system: oedema that developed after injection of carrageenan; assay: Oedema after injection of carrageenan, measured plethysmographically; format: in vivo, rats; conditions: 4h after challenge; pretreatment 200»g/150g ip; data not shown
[4] = system: hyperalgesia evoked by DbcAMP; assay: Rat paw pressure test: hyperalgesia evoked by DbcAMP; format: in vivo, rats; conditions: 200»g/150g rat weight ip
[5] = system: hyperalgesia evoked by PGE₂; assay: Rat paw pressure test: hyperalgesia evoked by PGE₂; format: in vivo, rats; conditions: for DELTA REACTION TIME: 1h before PGE₂ ipl, 3h after PGE₂; for change of delta reaction time vs control (= 100%): control 16.8 ± 0.3; for ED₅₀: antagonising PGE₂ evoked hyperalgesia in rats; for antagonism of hyperalgesia evoked by PGE₂: in words
[6] = system: hyperalgesia evoked by IL-1β; assay: Modified Randall-Sellito rat paw pressure test: hyperalgesia evoked by IL-1β; format: in vivo, rats; conditions: for DELTA REACTION TIME: 1h before Il-1β (0.05U) ip, 3h after Il-1β; for change of delta reaction time vs control (= 100%): control 23.9 ± 0.5; for ED₅₀: antagonism of Il-1β evoked hyperalgesia in rats; for antagonism of hyperalgesia evoked by Il-1β: in words
rats = assay: Hyperalgesic (agonist) activity of the substance itself, rat paw pressure test; format: in vivo
febrile rabbits = conditions: Richards and Lipton 1984; cited from earlier work
[7] = 2 mg/kg ip, 30 min before acetic acid, counted 10 to 20 min after challenge
[8] = 10 mg/kg ip, 30 min before acetic acid, counted 10 to 20 min after challenge
[9] = 30 mg/kg ip, 30 min before acetic acid, counted 10 to 20 min after challenge
[10] = 100 mg/kg ip, 30 min before acetic acid, counted 10 to 20 min after challenge
[11] = 100 mg/kg po, 30 min before acetic acid

Compound | % reduction from saline control ([1]; 2 mg/kg ip) | number of contorsions (median) [1, 7] | % reduction from saline control ([1]; 10 mg/kg ip) | number of contorsions (median) [1, 8] | % reduction from saline control ([1]; 30 mg/kg ip) | number of contorsions (median) [1, 9] | % reduction from saline control ([1]; 100 mg/kg ip) | number of contorsions (median) [1, 10] | % reduction from saline control ([1]; 100 mg/kg po) | number of contorsions (median) [1, 11] | analgesic activity against hyperalgesia evoked by acetic acid, given ip ([1]; in words) | ED₅₀ [5] | antagonism of hyperalgesia evoked by PGE₂ [5] | ED₅₀ [6] | antagonism of hyperalgesia evoked by Il-1β [6] | other results
C[C@@H](O)[C@H](NC(=O)[C@@H]1CCCN1C(=O)[C@H](N)CCCCN)C(=O)O [(D)KPT, D-Lys-Pro-Thr] (H-[dK]-Pro-Thr-OH) | -28% | 20.5 | -11% | 24.5 | -50% | 14 | -66% | 9 | -59% | 11 | dose-related analgesic activity |  |  |  |  | 
NCCCC[C@H](N)C(=O)N1CCC[C@@H]1C(=O)O [K(D)P, Lys-D-Pro] (H-Lys-[dP]-OH) |  |  |  |  |  |  |  |  |  |  | effective analgesic |  |  |  |  | % reduction from saline control ([1]; 5 mg/kg po): -10%; number of contorsions (median) ([1]; 5 mg/kg po, 30 min before acetic acid): 19; % reduction from saline control ([1]; 10 mg/kg po): -36%; number of contorsions (median) ([1]; 10 mg/kg po, 30 min before acetic acid): 13.5; % reduction from saline control ([1]; 20 mg/kg po): -38%; number of contorsions (median) ([1]; 20 mg/kg po, 30 min before acetic acid): 14; % reduction from saline control ([1]; Table 9, 5 mg/kg ip): -58%; number of contorsions (median) ([1]; Table 9, 5 mg/kg ip): 11; % reduction from saline control ([1]; Table 9, 20 mg/kg ip): -77%; number of contorsions (median) ([1]; Table 9, 20 mg/kg ip): 6; analgesic activity against hyperalgesia evoked by acetic acid, given orally (po) ([1]; po, in words): effective analgesic
C[C@@H](O)[C@H](NC(=O)[C@H]1CCCN1C(=O)[C@@H](N)CCCCN)C(=O)O [K(D)PT, Lys-D-Pro-Thr] (H-Lys-[dP]-Thr-OH) |  |  |  |  |  |  |  |  |  |  |  |  |  |  |  | PGE₂ release (ng/ml) by MNC (5x10⁶ cells/ml) incubated for 4h with: E.coli endotoxin (25pg/ml) ([2]; 200 µg/ml, 0.58 millimoles/L, added 45 min before): 4.1±0.3 ng/ml; oedema after injection of carrageenan [3]: not diminished
CC(C)[C@H](NC(=O)[C@H]1CCCN1C(=O)[C@@H](N)CCCCN)C(=O)O [K(D)PV, Lys-D-Pro-Val] (H-Lys-[dP]-Val-OH) | -33% | 19 | -38% | 17 | -45% | 15.5 | -74% | 7 | -52% | 13 | dose-related analgesic activity | ~140 »g/150 g rat | antagonise hyperalgesia evoked by PGE₂ | 40 »g/150g rat | more potent antagonists of Il-1β-evoked hyperalgesia than Lys-D-Pro-Thr | DELTA REACTION TIME ([4]; 1h before DbcAMP (100»g/paw) ipl, 3h after DbcAMP): 16.0 ± 0.2 s; change of delta reaction time vs control (= 100%) ([4]; control 17.2 ± 6.4 sec): -7.0%; DELTA REACTION TIME ([5]; 20 »g/150g rat weight ip): 14.0 ± 0.4 s; change of delta reaction time vs control (= 100%) ([5]; 20 »g/150g rat weight ip): -16.7%; DELTA REACTION TIME ([5]; 50 »g/150g rat weight ip): 13.4 ± 0.4 s; change of delta reaction time vs control (= 100%) ([5]; 50 »g/150g rat weight ip): -20.2%; DELTA REACTION TIME ([5]; 100 »g/150g rat weight ip): 9.0 ± 0.2 s; change of delta reaction time vs control (= 100%) ([5]; 100 »g/150g rat weight ip): -46±4%; DELTA REACTION TIME ([5]; 200 »g/150g rat weight ip): 6.0 ± 0.3 s; change of delta reaction time vs control (= 100%) ([5]; 200 »g/150g rat weight ip): -64.3%; DELTA REACTION TIME ([6]; 20 »g/150g rat weight ip): 18.2 ± 0.4 s; change of delta reaction time vs control (= 100%) ([6]; 20 »g/150g rat weight ip): -23.9%; DELTA REACTION TIME ([6]; 50 »g/150g rat weight ip): 8.5 ± 0.6 s; change of delta reaction time vs control (= 100%) ([6]; 50 »g/150g rat weight ip): -64.4%; DELTA REACTION TIME ([6]; 100 »g/150g rat weight ip): 3.8 ± 0.7 s; change of delta reaction time vs control (= 100%) ([6]; 100 »g/150g rat weight ip): 84.1%; DELTA REACTION TIME ([6]; 200 »g/150g rat weight ip): 2.8 ± 0.6 s; change of delta reaction time vs control (= 100%) ([6]; 200 »g/150g rat weight ip): -88.3%
C[C@@H](O)[C@H](NC(=O)[C@@H]1CCCN1C(=O)[C@@H](N)CCCCN)C(=O)O [KPT, Lys-Pro-Thr] (H-Lys-Pro-Thr-OH) | -33% | 19 | -31% | 19 | -50% | 14 | -70% | 8 | -67% | 9 | dose-related analgesic activity |  | not exhibited | approximately 25 »g/150g rat | antagonise hyperalgesia evoked by Il-1β | inhibition of prostaglandin production ([2]; in words): do not inhibit prostaglandin production; doses that evoke hyperalgesia (agonist activity) (rats): ≥ 50 »g/150g rat
CC(C)[C@H](NC(=O)[C@@H]1CCCN1C(=O)[C@@H](N)CCCCN)C(=O)O [Lys-Pro-Val] (H-Lys-Pro-Val-OH) |  |  |  |  |  |  |  |  |  |  |  | approximately 170 »g/150 g rat | antagonise hyperalgesia evoked by PGE₂ | 70 »g/150g rat | more potent antagonists of Il-1β-evoked hyperalgesia than Lys-D-Pro-Thr | antipyretic effect (febrile rabbits): antipyretic effect
